From paper PMC4336329 (PLoS ONE, 2015)
In all, about 310,000 compounds went through this assay and about 14,000 (4.5%) showed an effect of 50% or more. The effect is printed as a negative number. This is one part of the list.

Biological target: human ether-à-go-go-related gene (hERG) potassium channel (human, UniProt Q12809)
Assay: primary screen, population patch clamp on CHO cells stably expressing hERG
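Note: peak tail current of the secondary pulse compared with the same well before compound.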

Sequence of human ether-à-go-go-related gene (hERG) potassium channel (Q12809 whole entry, looked up): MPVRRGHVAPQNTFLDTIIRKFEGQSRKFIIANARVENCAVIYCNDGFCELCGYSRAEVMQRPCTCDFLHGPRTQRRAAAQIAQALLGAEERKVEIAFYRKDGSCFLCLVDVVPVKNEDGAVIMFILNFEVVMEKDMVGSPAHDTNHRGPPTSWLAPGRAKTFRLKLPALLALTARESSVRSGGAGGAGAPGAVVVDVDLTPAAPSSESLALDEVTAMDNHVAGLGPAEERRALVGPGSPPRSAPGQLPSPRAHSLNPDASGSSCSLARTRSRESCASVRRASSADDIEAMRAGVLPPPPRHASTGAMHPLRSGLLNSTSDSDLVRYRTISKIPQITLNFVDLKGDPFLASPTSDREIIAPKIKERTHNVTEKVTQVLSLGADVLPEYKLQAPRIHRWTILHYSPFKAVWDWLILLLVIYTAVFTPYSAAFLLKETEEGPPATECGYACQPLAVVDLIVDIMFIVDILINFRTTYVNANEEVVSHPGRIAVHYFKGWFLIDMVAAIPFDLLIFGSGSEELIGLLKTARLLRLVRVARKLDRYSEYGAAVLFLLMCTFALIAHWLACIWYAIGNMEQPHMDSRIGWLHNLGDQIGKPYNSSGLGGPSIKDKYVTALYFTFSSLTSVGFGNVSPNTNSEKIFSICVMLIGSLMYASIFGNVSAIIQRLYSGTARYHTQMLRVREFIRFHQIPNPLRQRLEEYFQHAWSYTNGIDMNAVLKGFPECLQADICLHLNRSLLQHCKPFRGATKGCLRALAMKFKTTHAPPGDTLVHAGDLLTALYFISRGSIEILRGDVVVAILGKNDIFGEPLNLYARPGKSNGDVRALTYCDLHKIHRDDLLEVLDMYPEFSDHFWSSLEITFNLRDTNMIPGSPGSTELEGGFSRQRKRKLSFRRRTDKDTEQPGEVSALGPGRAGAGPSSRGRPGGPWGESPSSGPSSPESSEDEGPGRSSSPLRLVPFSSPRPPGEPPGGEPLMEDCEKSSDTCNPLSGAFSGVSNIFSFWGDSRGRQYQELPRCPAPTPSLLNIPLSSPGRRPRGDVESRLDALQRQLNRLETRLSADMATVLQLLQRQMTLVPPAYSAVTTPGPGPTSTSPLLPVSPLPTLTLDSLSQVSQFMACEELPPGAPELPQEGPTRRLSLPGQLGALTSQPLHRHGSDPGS

SMILES	hERG current change (%, negative = inhibition) at 10uM [%]
CCN1CCc2c(sc(NC(=O)C3COc4ccccc4O3)c2C(N)=O)C1.Cl (stereo not drawn)	-20.8
O=C(NC(Cc1ccccc1)C(=O)O)/C(=C/c1cccc([N+](=O)[O-])c1)NC(=O)c1cccc(Br)c1 (stereo not drawn)	6.35
CCOc1ccc(-n2nc3c(SCCN4CCCC4)nnc(C)c3c2C)cc1	-37.5
O=C(NCc1nc2ccccc2[nH]1)c1cccs1	5.55
Cc1ccc(/C=C/C(=O)Nc2ccc([N+](=O)[O-])cc2)o1	-1.05
CSc1ccc(CN(C)CC(=O)N(C)CC(=O)Nc2ccccc2Br)cc1	-56.9
COc1ccc(C2=NOC(Cn3nc(C(=O)NCc4ccc5c(c4)OCO5)cc3-c3ccccc3)C2)cc1 (stereo not drawn)	-17.4
CCOC(=O)C(Sc1nnc2c3ccccc3n(CC)c2n1)C(=O)OCC	-28.7
COc1cc(/C=N/NC(=O)c2cncc(Br)c2)cc([N+](=O)[O-])c1O	33.5
CC(=O)c1ccc(OCCn2cnc3ccccc32)cc1	-15.1
c1ccc2c(c1)Cn1c-2nc2ccccc21	-7.79
Cc1ccc(N/N=C(\C#N)C(N)=S)c(C)c1	-0.767
COC(=O)C1=C(c2ccc(Cl)c(C(F)(F)F)c2)C[C@@H]2CC[C@H]1N2C(=O)NCCO	3.46
COc1ccccc1CCCNC(=O)C1CCC(=O)N(CCCN2CCCC2=O)C1 (stereo not drawn)	14
COc1ccc(N2CCN(C(=O)c3ccc4ccccc4n3)CC2)cc1	-31.5
CCNCC(=O)N1c2ccccc2CCc2ccc(NC(=O)OC(C)C)cc21.Cl	-11
COCCOC(=O)C1=C(N)OC2=C(C(=O)CC(C)(C)C2)C1c1cccnc1 (stereo not drawn)	-5.71
COc1ccc(-c2sc3cc(OC)c(OC)cc3c2C#CC2(O)CCCCC2)cc1	14
O=C(CCNC(=O)N1CC(=O)Nc2ccccc21)Nc1ccc(Cl)cc1	22.9
COc1ccc(N2CC(C(=O)OCC(=O)Nc3cccc(C)c3C)CC2=O)cc1 (stereo not drawn)	2.78
Cc1ccc(-n2nnnc2SCC(=O)N2CCNC2=O)cc1C	-20.2
COc1cccc(CC(=O)Nc2cc(S(=O)(=O)N3CCCCC3)ccc2C)c1	-15.9
COc1ccc(CCNc2cn[nH]c(=O)c2Cl)cc1OC	14.1
CCC(=O)Nc1cccc(-c2cn3cccc(C)c3n2)c1	-21.5
O=C(CSc1nc(-c2ccccc2)cs1)N1CCN(C(=O)c2ccco2)CC1	-60.6
NC(=O)C1(N2CCCCC2)CCN(C(=O)c2ccc(C#Cc3ccccc3)o2)CC1	-21.5
COc1ccc(N2CCN(CC(=O)c3c[nH]c4ccccc34)CC2)cc1	8.09

SMILES	hERG current change (%, negative = inhibition) at 10uM [%]
CCC(C(=O)Nc1nnc(-c2ccco2)s1)c1ccccc1 (stereo not drawn)	14.7
Cn1nc(C(=O)NC2CCCCC2)c2c1-c1ccccc1SC2	-3.08
COc1ccc(-n2ncc3c(=O)n(CC(C)=O)cnc32)cc1	23.3
O=C(Nc1cccc(C(=O)O)c1)/C(=C\c1ccccc1)NC(=O)c1cccc2ccccc12	9.23
CCCCOc1ccc(C(=O)Oc2cccnc2)cc1	12.2
O=C(COC(=O)CNC(=O)c1ccccc1F)Nc1cccnc1Cl	9.67
CN1CCCC1C(O)(c1ccccc1)c1ccccc1.Cl (stereo not drawn)	-3.06
O=C(Nc1cccc2ccccc12)C1CCN(C(=O)Cc2ccccc2)CC1	-25.3
COc1ccc(C(C(=O)NCc2ccccc2)N(Cc2ccco2)C(=O)c2snc(C(N)=O)c2N)cc1 (stereo not drawn)	-38.2
O=C(c1ccc(CS(=O)(=O)c2ccc(Br)cc2)o1)N1CCC2(CC1)OCCO2	-18.2
Cc1ccc(NC(=O)Cn2cc(S(=O)(=O)c3ccc(F)cc3)c(=O)c3cc(F)ccc32)cc1	4.56
CCc1nc(C)c(C(=O)N2CCCC(C(=O)Nc3cccc(-c4cccc(C)c4)c3)C2)o1 (stereo not drawn)	-42.5
Clc1ccc(Cn2ncc3c(N4CCOCC4)ncnc32)cc1	-16.2
Cc1c(C(C)CCCO)oc(=O)c2c1Oc1c(C)c(C(C)C[C@H](C)O)oc(=O)c1C2 (stereo partly drawn)	2.15
COc1ccc(C(=O)NCCNc2nc3c(C)cccc3cc2C#N)cc1	5.36
CC(NC(=O)c1ccco1)C(=O)N1CCN(C(c2ccccc2)c2ccccc2)CC1 (stereo not drawn)	-15.7
COc1ccc(S(=O)(=O)N2CCOC23CCN(S(=O)(=O)c2cc(C)ccc2OC)CC3)cc1	26.8
CCCCN1CC(O)=C(c2nc(-c3ccc(Cl)cc3)cs2)C1=N	15.8
C=CCNC(=S)NNc1nc2sc3c(c2c(=O)[nH]1)CC(C)(C)OC3	15.6
COC(=O)c1cc(S(=O)(=O)N2CCN(c3ccc(C(C)=O)cc3)CC2)cn1C	8.29
CCOC(=O)Nc1n[nH]c(NC(=O)OCC)c1[N+](=O)[O-]	5.13
O=C(COc1ccccc1Cl)Nc1nc(-c2cccs2)cs1	2.85
CCN(CC)CCNC(=S)Nc1ccc(Cl)cc1	-21.7
CCN1CCN(S(=O)(=O)c2ccc(Cl)c(C(=O)Nc3ccccc3N3CCCC3)c2)CC1	-24.5
CC(c1ccccc1)n1c(N2CCNCC2)nc2c1c(=O)[nH]c(=O)n2C (stereo not drawn)	6.32
O=[N+]([O-])c1ccc(N2CCCC2)cc1NC1CC1	-0.823
COc1cc(/C=C2\SC(=S)N(c3cccnc3)C2=O)ccc1O	5.42
